# Assay results reported in the supplement of paper PMC10037445.
# The full ranking holds about 2,900 compounds; the median of “NF-kB SEAP reporter activity, fold change vs agonist alone” is about 0.99, and the highest 2% start at about 2.6. The list shows a part of the results.
# Experiments:
# RAW-Dual [1] = experiment: NF-kB SEAP reporter activity, fold change vs agonist alone; cytotoxicity flag (confluency mask): not cytotoxic; higher = enhanced NF-kB activity
# In short: (§1)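 After 50 nL of library stock was delivered by pin tool to RAW-Dual macrophages (50,000 cells/well, DMEM, 384-well plates), a PRR agonist was added 1 h later and the plates were kept at 37 °C, 5% CO2. Twenty hours later, IRF was read from supernatant by QuantiLuc luminescence and NF-κB by QuantiBlue absorbance at 620 nm. Reporter activity is stated as fold change over agonist-alone wells. Wells with IncuCyte confluency under 70% of agonist controls in both mask sets were counted as cytotoxic.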
# RAW-Dual [2] = experiment: NF-kB SEAP reporter activity, fold change vs agonist alone; higher = enhanced NF-kB activity; conditions: library stock concentration (final ~1000-fold dilution): 10 mM
# In short: as §1
# RAW-Dual [3] = experiment: NF-kB SEAP reporter activity, fold change vs agonist alone; cytotoxicity flag (confluency mask): cytotoxic (confluency <70% of control); higher = enhanced NF-kB activity
# In short: as §1
# [4] = agonist: ODN 1826 (TLR9) 0.5 ug/mL
# [5] = agonist: Pam2CSK4 (TLR2/6) 0.1 ug/mL
# [6] = agonist: Pam3CSK4 (TLR2/1) 0.1 ug/mL
# [7] = cytotoxicity flag (confluency mask): not cytotoxic, agonist: Imiquimod (TLR7) […]
# [8] = cytotoxicity flag (confluency mask): not cytotoxic, agonist: MPLA (TLR4) […]
# [9] = cytotoxicity flag (confluency mask): cytotoxic (confluency <70% of control), agonist: Imiquimod (TLR7) […]
# [10] = cytotoxicity flag (confluency mask): cytotoxic (confluency <70% of control), agonist: MPLA (TLR4) […]
smiles,measurement,setting,value
CCCCOc1c(C(=O)c2c(F)cc(C)cc2F)cnc2[nH]ncc12 (library stock concentration (final ~1000-fold dilution): 10 mM),NF-kB SEAP reporter activity,RAW-Dual [1]; agonist: LPS (TLR4) 0.1 ug/mL,0.894
same,NF-kB SEAP reporter activity,RAW-Dual [1]; [4],1.15
same,NF-kB SEAP reporter activity,RAW-Dual [1]; [5],1.8
same,NF-kB SEAP reporter activity,RAW-Dual [1]; [6],1.94
CCCCOc1c(C(=O)c2c(F)cc(C)cc2F)cnc2[nH]ncc12,NF-kB SEAP reporter activity,RAW-Dual [2]; [7],1.58
same,NF-kB SEAP reporter activity,RAW-Dual [2]; [8],1.55
Nc1nc2c(cnn2CCc2ccccc2)c2nc(-c3ccco3)nn12,NF-kB SEAP reporter activity,RAW-Dual [2]; [7],1.34
same,NF-kB SEAP reporter activity,RAW-Dual [2]; [8],1.38
Nc1nc2c(cnn2CCc2ccccc2)c2nc(-c3ccco3)nn12 (library stock concentration (final ~1000-fold dilution): 10 mM),NF-kB SEAP reporter activity,RAW-Dual [1]; agonist: LPS (TLR4) 0.1 ug/mL,1.57
same,NF-kB SEAP reporter activity,RAW-Dual [1]; [4],1.28
same,NF-kB SEAP reporter activity,RAW-Dual [1]; [5],1.2
same,NF-kB SEAP reporter activity,RAW-Dual [1]; [6],1.87
CNC(=O)c1c(F)cccc1Nc1nc(Nc2cc3c(cc2OC)CCN3C(=O)CN(C)C)nc2[nH]ccc12,NF-kB SEAP reporter activity,RAW-Dual [2]; [9],1.33
same,NF-kB SEAP reporter activity,RAW-Dual [2]; [10],1.08
CNC(=O)c1c(F)cccc1Nc1nc(Nc2cc3c(cc2OC)CCN3C(=O)CN(C)C)nc2[nH]ccc12 (library stock concentration (final ~1000-fold dilution): 10 mM),NF-kB SEAP reporter activity,RAW-Dual [3]; agonist: LPS (TLR4) 0.1 ug/mL,0.959
same,NF-kB SEAP reporter activity,RAW-Dual [3]; [4],0.373
same,NF-kB SEAP reporter activity,RAW-Dual [3]; [5],0.22
same,NF-kB SEAP reporter activity,RAW-Dual [3]; [6],1.05
Cc1cccc(C)c1OCC(C)N.Cl (stereo unspecified) (library stock concentration (final ~1000-fold dilution): 10 mM),NF-kB SEAP reporter activity,RAW-Dual [1]; agonist: LPS (TLR4) 0.1 ug/mL,1.37
same,NF-kB SEAP reporter activity,RAW-Dual [1]; [4],0.887
same,NF-kB SEAP reporter activity,RAW-Dual [1]; [5],1.19
same,NF-kB SEAP reporter activity,RAW-Dual [1]; [6],1.03
Cc1cccc(C)c1OCC(C)N.Cl (stereo unspecified),NF-kB SEAP reporter activity,RAW-Dual [2]; [7],0.972
same,NF-kB SEAP reporter activity,RAW-Dual [2]; [8],1.12
O=C(/C=C/c1cccc(S(=O)(=O)Nc2ccccc2)c1)NO (library stock concentration (final ~1000-fold dilution): 10 mM),NF-kB SEAP reporter activity,RAW-Dual [3]; agonist: LPS (TLR4) 0.1 ug/mL,5.83
same,NF-kB SEAP reporter activity,RAW-Dual [3]; [4],2.3
same,NF-kB SEAP reporter activity,RAW-Dual [3]; [5],0.848
same,NF-kB SEAP reporter activity,RAW-Dual [3]; [6],1.76
O=C(/C=C/c1cccc(S(=O)(=O)Nc2ccccc2)c1)NO,NF-kB SEAP reporter activity,RAW-Dual [2]; [9],2.39
same,NF-kB SEAP reporter activity,RAW-Dual [2]; [10],2.58
CN(C)C(=O)/C(C#N)=C/c1ccc(-c2nc3cnc4[nH]ccc4c3n2C2CCCCC2)o1,NF-kB SEAP reporter activity,RAW-Dual [2]; [7],0.765
same,NF-kB SEAP reporter activity,RAW-Dual [2]; [8],0.698
CN(C)C(=O)/C(C#N)=C/c1ccc(-c2nc3cnc4[nH]ccc4c3n2C2CCCCC2)o1 (library stock concentration (final ~1000-fold dilution): 10 mM),NF-kB SEAP reporter activity,RAW-Dual [1]; agonist: LPS (TLR4) 0.1 ug/mL,0.46
same,NF-kB SEAP reporter activity,RAW-Dual [1]; [4],0.729
same,NF-kB SEAP reporter activity,RAW-Dual [1]; [5],0.315
same,NF-kB SEAP reporter activity,RAW-Dual [1]; [6],0.52
COc1ccc2c(OC3CC4C(=O)NC5(C(=O)NS(=O)(=O)C6CC6)CC5/C=C\CCCCN(C)C(=O)C4C3)cc(-c3nc(C(C)C)cs3)nc2c1C (stereo unspecified),NF-kB SEAP reporter activity,RAW-Dual [2]; [8],1.03
COc1ccc2c(OC3CC4C(=O)NC5(C(=O)NS(=O)(=O)C6CC6)CC5/C=C\CCCCN(C)C(=O)C4C3)cc(-c3nc(C(C)C)cs3)nc2c1C (stereo unspecified) (library stock concentration (final ~1000-fold dilution): 10 mM),NF-kB SEAP reporter activity,RAW-Dual [1]; agonist: LPS (TLR4) 0.1 ug/mL,3.16
same,NF-kB SEAP reporter activity,RAW-Dual [1]; [4],0.926
same,NF-kB SEAP reporter activity,RAW-Dual [1]; [5],0.842
same,NF-kB SEAP reporter activity,RAW-Dual [1]; [6],0.952
